# Data as given in PubChem BioAssay AID624296 (National Center for Advancing Translational Sciences (NCATS), 2012).
# Screen size: about 350,000 compounds; about 9,900 (2.8%) were called active. Inconclusive means that the source gave no clear call. Such entries were picked first, then a sample of the others. The call rests on the fitted dose curve; in most records, active means well fitted activation curve with a large enough effect; inconclusive means small, poorly fitted or top-dose-only effect; inactive means no such curve, though single readings can be large or run the other way. No potency is given beside an inconclusive call; the fits are too rough.
# Test: A quantitative high throughput screen for small molecules that induce DNA re-replication in MCF 10a normal breast cells. Further: nearly all actives have a fitted effect of over 50% in size.
# Conditions: MCF 10A DNA re-replication, Hoechst nuclear intensity, 48 h; series mostly up to 46.1 µM
# Potency means the concentration at half of the fitted maximal effect; tags describe the fitted curve by direction and shape.
row,Structure (SMILES),Potency
1,N=c1c(-c2nc3ccccc3[nH]2)cc(C(=O)c2ccco2)nn1-c1ccccc1,inactive
2,Cc1ccccc1C(CC(=O)c1cccs1)C(C#N)C#N (stereo not drawn),"inconclusive [activator, partial curve, poor fit]"
3,Cc1c(NC(=O)c2coc(=O)c(Br)c2)c(=O)n(-c2ccccc2)n1C,"inconclusive [activator, single point]"
4,Cc1ccc2nc(-c3ccc(-c4cccc(Cl)c4)cc3)c(NCc3ccccc3)n2c1,"inconclusive [activator, single point]"
5,CCOC(=O)C1CCCN(C(=S)NC(=O)c2cc(Br)ccc2Cl)C1 (stereo not drawn),inactive
6,Cc1ccc(SCCC(=O)N/N=C/c2ccccc2O)cc1,inactive
7,CC1CCN(CC(=O)Nc2ccc(C(=O)N3CCCCC3)cc2)CC1,"inconclusive [activator, single point]"
8,CC(C)(C)c1ccc(C(=O)N2CCC(=O)N(C(COCc3ccccc3)Cc3ccccc3)CC2)cc1 (stereo not drawn),active: 20.6 µM
9,COc1ccccc1/C=C/C(=O)OCC(=O)Nc1nnc(-c2ccccc2)o1,"inconclusive [activator, partial curve, poor fit]"
10,CO/N=C\CC(=O)Nc1ccc(Oc2ccccc2)cc1,"inconclusive [activator, single point]"
11,C=CC(COCc1ccccc1)N(CC(=O)OC)S(=O)(=O)c1cc(Br)ccc1OC (stereo not drawn),"inconclusive [activator, single point]"
12,Nc1cc([N+](=O)[O-])ccc1Nc1ccc(O)cc1,inactive
13,COc1ccc(/C=C2\CCCc3c2nc2ccccc2c3C(=O)OCC(=O)c2c(N)n(C)c(=O)n(C)c2=O)cc1,active: 4.61 µM
14,CCOc1ccccc1N1CCN(C(=O)CNC(=O)c2ccc(OC)c(OC)c2)CC1,inactive
15,CCOCCN(C=O)c1cccc(OC)c1,"inconclusive [activator, partial curve, poor fit]"
16,O=C(CN1CCCCC1)Nc1ccc(S(=O)(=O)NC2CCCCC2)cc1,"inconclusive [activator, single point]"
17,COc1ccc2nc3cc(Cl)ccc3c(Nc3cc(C(C)C)c(O)cc3C)c2c1,"inconclusive [activator, partial curve, poor fit]"
18,Cc1ccc(C2=NNC(c3cccc(F)c3)S2)cc1 (stereo not drawn),inactive
19,COC(=O)c1c(C)[nH]c(C(=O)COC(=O)Cn2cc(C(F)(F)F)ccc2=O)c1C,inactive
20,COc1ccc2nc(N3CCN(C(=O)c4ccc5ncsc5c4)CC3)sc2c1,"inconclusive [activator, single point]"
21,S=C(NCCc1ccccc1)Nc1ccc(Br)cn1,inactive
22,COc1ccc(NC(=O)CCN=C2NS(=O)(=O)c3ccccc32)cc1S(=O)(=O)N(C)C,inactive
23,CC(C)OP(C)(=O)CN1CCN(CP(C)(=O)OC(C)C)CC1 (stereo not drawn),"inconclusive [activator, partial curve, poor fit]"

row,Structure (SMILES),Potency
1,COc1cccc(NC(=O)CSc2nc3ccccc3c3nc4ccccc4n23)c1,"inconclusive [activator, partial curve, poor fit]"
2,CCC(C)C(N)C1=NC(C(=O)N[C@@H](CC(C)C)C(=O)N[C@H](CCC(=O)[O-])C(=O)N[C@H](C(=O)N[C@H]2CCCCNC(=O)[C@H](CC(N)=O)NC(=O)[C@@H](CC(=O)[O-])NC(=O)[C@H](Cc3cnc[nH]3)NC(=O)[C@@H](Cc3ccccc3)NC(=O)[C@H]([C@@H](C)CC)NC(=O)[C@@H](CCCN)NC2=O)[C@@H](C)CC)CS1.[Zn+2] (stereo partly drawn),"inconclusive [activator, full curve, poor fit]"
3,CCCCOc1ccc(C(C)NC(=O)CCS(=O)(=O)Cc2ccc(Cl)cc2)cc1 (stereo not drawn),"inconclusive [activator, partial curve]"
4,Cn1c(SCC(=O)NC(C)(C)C)nc(O)cc1=O,"inconclusive [activator, single point]"
5,Cn1c(CN2CCN(S(C)(=O)=O)CC2)nc2cc([N+](=O)[O-])ccc21,"inconclusive [activator, single point]"
6,CCOC(=O)c1c(C)n(-c2ccc(C)cc2)c2ccc(OCC(O)CN3CCN(C)CC3)cc12 (stereo not drawn),"inconclusive [activator, single point]"
7,Cn1c(CCN2CCN(c3ccccn3)CC2)nc2cc(NS(=O)(=O)c3ccc(Cl)cc3)ccc21,"inconclusive [activator, single point]"
8,Cc1ccc(C(=O)CSc2nnc(-c3ccccc3)n2-c2ccccc2)o1,"inconclusive [activator, single point]"
9,O=[N+]([O-])c1cc(C(F)(F)F)ccc1Sc1nccn1Cc1ccccc1,"inconclusive [activator, single point]"
10,N#CC1=C(N)C2=CCCC[C@H]2[C@H](c2cccc(F)c2)C1(C#N)C#N,active: 20.6 µM
11,COc1ccc(NC(=O)/C(Cl)=C(/Cl)S(=O)(=O)Cc2ccccc2)cn1,"inconclusive [activator, partial curve, poor fit]"
12,CC(C)C(c1nnnn1Cc1ccc(F)cc1)N1CCN(Cc2ccc3c(c2)OCO3)CC1 (stereo not drawn),"inconclusive [activator, single point]"
13,C/C(CC(=O)Nc1ccccn1)=N\NC(=O)c1ccccc1O,inactive
14,CCN(CC)S(=O)(=O)c1ccc(-c2nnc(SCC(=O)N3CCOCC3)o2)cc1,"inconclusive [activator, single point]"
15,COCCNCc1ccc(C(C)C)cc1,inactive
16,O=C(O)CSc1c[nH]c2ccccc12,inactive
17,CN(C)c1ccc(C(=O)NCc2ccc3c(c2)CCO3)cc1,"inconclusive [activator, single point]"
18,O=S(=O)(c1cccs1)N1CCN(c2ccc(O)cc2)CC1,"inconclusive [activator, full curve, poor fit]"
19,C/C(=N\NS(=O)(=O)c1ccc([N+](=O)[O-])cc1)c1ccc(NC(=O)c2ccco2)cc1,inactive
20,O=C(c1cn(Cc2ccccc2)nc1-c1cccnc1)N1CCN(Cc2ccccc2)CC1,inactive
21,COc1ccc(C2CC(c3cccs3)=NN2c2ccc(C=O)cc2)cc1 (stereo not drawn),"inconclusive [activator, full curve, poor fit]"
22,O=C(NCc1ccccc1CN1CCCC1)c1ccc(OCc2cscn2)cc1,"inconclusive [activator, single point]"
23,CCc1noc(C)c1C(=O)Nc1nc2c(C)cc(C)cc2s1,"inconclusive [activator, single point]"

row,Structure (SMILES),Potency
1,CC(=O)n1cc([C@H]2C=C(C(=O)NCc3ccccc3)O[C@@H](OCCCCO)C2)c2ccccc21,"inconclusive [activator, single point]"
2,CC(NC(=O)/C(=C\c1cccc([N+](=O)[O-])c1)NC(=O)c1ccco1)C(=O)O (stereo not drawn),"inconclusive [activator, partial curve, poor fit]"
3,CC(=O)Nc1ccc(SC[C@H](Cc2ccccc2)N2CC[C@@H](O)CCC2=O)cc1,inactive
4,Cc1noc(C)c1COC(=O)Cc1ccc(Cl)cc1,"inconclusive [activator, single point]"
5,CCn1nc(NC(=O)c2cccnc2)c2cc3ccccc3nc21,"inconclusive [activator, single point]"
6,COC(=O)c1ccc(COc2ccc3c4c(c(=O)oc3c2)CCC4)o1,inactive
7,COc1ccc(-n2nnnc2-c2ccccc2)cc1,inactive
8,CC(C)Cc1ccc(CN2CCCC(NC(=O)Cn3cnnn3)C2)cc1 (stereo not drawn),"inconclusive [activator, single point]"
9,Cc1ccc(C)c(N(C(=O)CNC(=O)c2ccco2)C(C(=O)NC2CCCCC2)c2ccncc2)c1 (stereo not drawn),inactive
10,COc1ccccc1OCc1ccc(C(=O)NC(C)(C)C)o1,inactive
11,CC(C(=O)NCCCc1ccccc1)n1cccc1C(=O)c1ccccc1 (stereo not drawn),inactive
12,CCn1c(-c2ccc(C)cc2)nn(CC(=O)NCCc2ccccc2)c1=S,"inconclusive [activator, partial curve]"
13,COC(=O)c1ccc(NC(=O)CNC(=O)c2sc3ccccc3c2Cl)cc1,"inconclusive [activator, single point]"
14,COc1ccc(Cl)cc1S(=O)(=O)N1CCCC(C(=O)NCc2ccncc2)C1 (stereo not drawn),inactive
15,COc1ccc(C2=CN3CCCCC3CC2=O)cc1OC (stereo not drawn),"inconclusive [activator, full curve, poor fit]"
16,CCC(C)C(=O)Nc1cc(C(=O)OC)cc(C(=O)OC)c1 (stereo not drawn),inactive
17,CC(=O)NC(c1ccco1)c1cc(Cl)c2ccc(Cl)nc2c1O (stereo not drawn),"inconclusive [activator, partial curve, poor fit]"
18,COc1ccc(N(CCC(=O)Nc2ccccc2F)S(=O)(=O)c2ccc(C)cc2C)cc1,inactive
19,O=[N+]([O-])c1ccc(C(O)C[n+]2ccccc2)cc1 (stereo not drawn),"inconclusive [activator, full curve, poor fit]"
20,CCNc1ccc(Br)cc(C(=O)/C=C/c2ccccc2Cl)c1=O,"inconclusive [activator, single point]"
21,COC(=O)c1ccc(CN2C(=O)c3ccccc3C2=O)cc1,inactive
22,COc1ccc(S(=O)(=O)N(Cc2ccco2)Cc2cc3ccccc3[nH]c2=O)cc1,inactive
